The labels stand for the following.
B1: chr7:149838571:149838572:-_ENSMUSG00000048583_ENSMUST00000000033|mus_mus|FALSE|FALSE (ssRNA)
RNA: GGGAGUUCUACAGUCCGACGAUCCAUGUAUCACUUGGCAGUGCCAUCUCCUUAUCUGGCCAAACUUAUUCUACACUGGCUAGUCAUUGGUCCUCAUGGCGGGGGUGGUUGGGGAGCACCGGGCUCACCAUGUGGACAGGUGCUCAACAGAGGAUUGAGCAUCA
B2: chr2:114393739:114393740:-_ENSMUSG00000057147_ENSMUST00000102542|mus_mus|FALSE|FALSE (ssRNA)
RNA: GGGAGUUCUACAGUCCGACGAUCAUUAGAAGCUAUCAUCUCUCGGAGCAAAUCUUCCUGGUUUCUUUGCCAAAGAUAAGCUAAAGGCUGGAGAUUGAGUCGUUUACAUACAUUUUCUACUCGUCCACGUUGAUAGUCAGAGAGCAACAGAGGAUUGAGCAUCA
B3: chr18:55283160:55283161:-_ENSG00000134440_ENST00000256854|hu_hu|motif|central (ssRNA)
RNA: GGGAGUUCUACAGUCCGACGAUCGUUCUUCAACUGUGAUUUAGAAAUAACAUUCCACCUCUCAUUUUCUUUUUGUGAAUCGGCGUAAAUGGUAGGAAAUGGUUCUUUCCCUACUGUCAUCAAAGCCUUUAGACCUGUUUUAAACAACAGAGGAUUGAGCAUCA
B4: chr3:119450855:119450856:-_ENSMUSG00000028134_ENSMUST00000029780|mus_hu|mus_mus_mus_hu_False|8_8 (ssRNA)
RNA: GGGAGUUCUACAGUCCGACGAUCUGUGGUGCCACUAAGAGGAGUAUUUGCUGUCUGGACAGCUGUCACAGCUUGAAGAACUGCCUGAGCACGUUGGUUUAAUGUAUUAUCUGUCUUUAGUUCUUUGUGAUUGGAGUACUGGAUCAACAGAGGAUUGAGCAUCA
B5: chr10:22606824:22606825:+_ENSG00000148444_ENST00000456711|hu_hu|FALSE|FALSE (ssRNA)
RNA: GGGAGUUCUACAGUCCGACGAUCAUGUAAGUUGCAGCUGCUGCAUGACAAUGUUUUAAAACCACUGGGUCGAUAUGUUUCAAGUCUGGAUGAUCUAACACGGCCUCGUCCGCCUGGGCGUCCAGCAGACUCUGGAAUGCCGCCCAACAGAGGAUUGAGCAUCA
B6: 137368508_137368628_152_5pUTR_ENSG00000031003_ENST00000033079|human|control|control (ssRNA)
RNA: GGGAGUUCUACAGUCCGACGAUCCUUCUCCAGGACCCGCGGCGACGGCAAGAGGGCGAGAACUGAGGCCCCAAGUGGCUCCGCGGCCGAGAAGCCUCUUCCUGGGGCGGCCGCUGACGGGAGGUUAAAGCUACGGCUGUGGCGCAACAGAGGAUUGAGCAUCA
B7: chr6:38652254:38652255:-_ENSG00000124767_ENST00000373365|hu_hu|hu_hu_hu_mus_False|1_68 (ssRNA)
RNA: GGGAGUUCUACAGUCCGACGAUCCGAGAACUUCAUAGCAGGGAAGUCAAGCUUCUGCAGGAGGGUCAUUCCAAGAACCCUCGUAUAAAAAUCCAGGGACUUCUUAGGAUCCUUAAUUCUUAGCAUCGUUUGCUGCAAUAGAAACAACAGAGGAUUGAGCAUCA
B8: chr10:70097624:70097625:+_ENSG00000096746_ENST00000354695|hu_hu|FALSE|FALSE (ssRNA)
RNA: GGGAGUUCUACAGUCCGACGAUCGUCCAUCGUCAAUGUUAUCCCAUUUGGCACGAUUUCCAACCCUUGAAAGAACUGAACUAUUUCCUCUUUGCUGCAACCAAAUGGUAGUCCACGAAGUCGUACUGUCCCAUCACUAGCGUCCAACAGAGGAUUGAGCAUCA
B9: chr2:48026839:48026840:+_ENSG00000116062_ENST00000540021|hu_hu|hu_hu_hu_mus_False|8_78 (ssRNA)
RNA: GGGAGUUCUACAGUCCGACGAUCAUAGUGAGCCACUAGCGUCCUAAAUCUGGAACAAUGGCGAUCAUCCGAAAACUGGCCGAUGAAAAACUUGCCCAGUGAAGUGUCCACAAAGCAAACACCAUACGCACGAGUAUGACCAGACAACAGAGGAUUGAGCAUCA
B10: chr17:64801638:64801639:+_ENSG00000154229_ENST00000413366|hu_mus|hu_hu_hu_mus_False|68_68 (ssRNA)
RNA: GGGAGUUCUACAGUCCGACGAUCUAUAUAUAUAUAUACAUAUGUACACAUAUAUAGUAAAACCCUAAUCUAUCACGUAAAGUAGCCAUUCAUUUUUAAAAUUACAUCUACAUUAAAAAAUUAAUAUAUCUGAUAGAGUGCCAGCAACAGAGGAUUGAGCAUCA
B11: chr5:40767622:40767623:-_ENSG00000132356_ENST00000397128|hu_mus|hu_hu_hu_mus_False|48_108 (ssRNA)
RNA: GGGAGUUCUACAGUCCGACGAUCAUCUUUGAUUGUGGCCCUCUUCAUGGGAUCCACCUGCAGCAUAUGUUUCAAAAGGCUGAUUACAGAAGGAUUUAAGUACUGAGGGGUAUAAAAGAUCCCAUCACAUAUCUUCUUAAAAAGCAACAGAGGAUUGAGCAUCA
B12: chr11:54683702:54683703:+_ENSMUSG00000020267_ENSMUST00000020504|mus_hu|FALSE|FALSE (ssRNA)
RNA: GGGAGUUCUACAGUCCGACGAUCCACAUUUCUUGCCAACAAUCAUUAAGUGUCCAAGAAGACUUUCAUCAUCAUCUUCUGCCACAGAAAUCUGGGAUAUAUGUUUCUUGGGUAUCACCAGAAAAUGUGUUGGUGCUUGAGGGGCAACAGAGGAUUGAGCAUCA
B13: 54250035_54256734_482_CDS_ENSG00000145216_ENST00000306932|human|control|control (ssRNA)
RNA: GGGAGUUCUACAGUCCGACGAUCAUUAAUGCUUCCAGGUGCAUCAAGGUCUACUCCUUUGACUUUUGUCCCUGUAGUUCCAUAAACUCUUCCCCCUGUCUUGAUGUUAAGAUUUACAGGUGCUGUACCAUAACUCCCAUACUGCAACAGAGGAUUGAGCAUCA
B14: chr4:95690885:95690886:+_ENSMUSG00000028572_ENSMUST00000156910|mus_mus|mus_mus_mus_hu_False|88_98 (ssRNA)
RNA: GGGAGUUCUACAGUCCGACGAUCUUUAGAAAAUGUUAAUGUUAAAUAGCAUGCUAAUUCAAAGGCUUAUUUUAUUUUACCAGAAGUCACAGGCAAGCAGACACUACAAGAAUAUAUGAAAAUGAAACUCAACAAUAUAACUGUCAACAGAGGAUUGAGCAUCA

The record followed here is PMC12136788.

Some of the results follow.

In this experiment the target is T1, UNK ZnF1-3 (human, UniProt Q9C0B0 31-174).
T1 sequence: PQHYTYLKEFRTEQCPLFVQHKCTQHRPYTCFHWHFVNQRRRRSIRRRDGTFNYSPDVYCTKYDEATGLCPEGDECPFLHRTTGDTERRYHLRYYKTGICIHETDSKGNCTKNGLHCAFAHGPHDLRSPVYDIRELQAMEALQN
As to the kind of experiment: nsRBNS (natural sequence RNA bind-n-seq); RBNS binding buffer (assumed for nsRBNS): 25 mM Tris pH 7.5, 150 mM KCl, 3 mM MgCl2, 0.01% Triton X-100, 500 ug/ml BSA, 20 U/ml SUPERase-In, 4 C; UNK is unkempt and MSI1 is Musashi-1; names of the RNAs are library labels; protein concentration not given here; high values mean tight binding.
On to B1, for which the binding signal amounted to 0.672 enrichment R.

The molecule B2 displayed a binding signal of 0.802 enrichment R.

In turn, B3 had a binding signal of 0.455 enrichment R.

As to B4, the binding signal worked out at 0.972 enrichment R.

B5 displayed a binding signal of 0.873 enrichment R.

The molecule B6 registered a binding signal of 0.845 enrichment R.

With B7, the binding signal came out at 0.519 enrichment R.

For the molecule B8, the binding signal is 0.685 enrichment R.

B9 yielded a binding signal of 1.23 enrichment R.

For the molecule B10, the binding signal came to 1.8 enrichment R.

B11 gave a binding signal of 1.52 enrichment R.

B12 returned a binding signal of 0.798 enrichment R.

B13 gave a binding signal of 0.722 enrichment R.

Turning to B14, the binding signal worked out at 1.58 enrichment R.
